Experimental data published in the CheMixHub viscosity set.
Values joined by “and” are separate entries in the source; they are usually repeats but may differ in a detail not shown here. Equal values may be shown once. This continues a long series; more values of the same kind are listed elsewhere.

Experiment: xn = mol fraction of the nth substance listed
Conditions: 101 kPa

CCCCOCCO + O
Conditions | viscosity
293.15 K, x1 = 0.0762 | 3.4 mPa·s
293.15 K, x1 = 0.1861 | 4.746 mPa·s
293.15 K, x1 = 0.2919 | 4.879 mPa·s
295.15 K, x1 = 0.0762 | 3.192 mPa·s
295.15 K, x1 = 0.1861 | 4.431 mPa·s
295.15 K, x1 = 0.2919 | 4.554 mPa·s
297.15 K, x1 = 0.0762 | 3.004 mPa·s
297.15 K, x1 = 0.1861 | 4.144 mPa·s
297.15 K, x1 = 0.2919 | 4.256 mPa·s
297.51 K, x1 = 0.05983 | 2.592 mPa·s
298.15 K, x1 = 0.01 | 1.122 mPa·s
298.15 K, x1 = 0.025 | 1.52 mPa·s
298.15 K, x1 = 0.05 | 2.195 mPa·s
298.15 K, x1 = 0.075 | 2.763 mPa·s
298.15 K, x1 = 0.1 | 3.183 mPa·s
298.15 K, x1 = 0.1191 | 3.576 mPa·s
298.15 K, x1 = 0.15 | 3.711 mPa·s
298.15 K, x1 = 0.2 | 4.014 mPa·s
298.51 K, x1 = 0.05983 | 2.518 mPa·s
299.15 K, x1 = 0.0762 | 2.833 mPa·s
299.15 K, x1 = 0.1861 | 3.883 mPa·s
299.15 K, x1 = 0.2919 | 3.987 mPa·s
299.51 K, x1 = 0.05983 | 2.449 mPa·s
300.15 K, x1 = 0.1191 | 3.365 mPa·s
300.51 K, x1 = 0.05983 | 2.381 mPa·s
301.15 K, x1 = 0.0762 | 2.679 mPa·s
301.15 K, x1 = 0.1861 | 3.646 mPa·s
301.15 K, x1 = 0.2919 | 3.742 mPa·s
301.51 K, x1 = 0.05983 | 2.317 mPa·s
302.15 K, x1 = 0.1191 | 3.184 mPa·s
302.51 K, x1 = 0.05983 | 2.254 mPa·s
303.15 K, x1 = 0.0762 | 2.537 mPa·s
303.15 K, x1 = 0.1191 | 3.092 mPa·s
303.15 K, x1 = 0.1861 | 3.432 mPa·s
303.15 K, x1 = 0.2919 | 3.514 mPa·s
303.51 K, x1 = 0.05983 | 2.198 mPa·s
303.95 K, x1 = 0.1191 | 3.023 mPa·s
304.51 K, x1 = 0.05983 | 2.142 mPa·s
305.15 K, x1 = 0.0762 | 2.408 mPa·s
305.15 K, x1 = 0.1191 | 2.923 mPa·s
305.15 K, x1 = 0.1861 | 3.233 mPa·s
305.15 K, x1 = 0.2919 | 3.307 mPa·s
305.51 K, x1 = 0.05983 | 2.088 mPa·s
306.15 K, x1 = 0.1191 | 2.842 mPa·s
306.51 K, x1 = 0.05983 | 2.039 mPa·s
307.15 K, x1 = 0.0762 | 2.292 mPa·s
307.15 K, x1 = 0.1191 | 2.773 mPa·s
307.15 K, x1 = 0.1861 | 3.051 mPa·s
307.15 K, x1 = 0.2919 | 3.117 mPa·s
307.51 K, x1 = 0.05983 | 1.989 mPa·s
308.15 K, x1 = 0.1191 | 2.704 mPa·s
308.51 K, x1 = 0.05983 | 1.943 mPa·s
309.15 K, x1 = 0.0762 | 2.185 mPa·s
309.15 K, x1 = 0.1191 | 2.637 mPa·s
309.15 K, x1 = 0.1861 | 2.883 mPa·s
309.15 K, x1 = 0.2919 | 2.94 mPa·s
309.51 K, x1 = 0.05983 | 1.899 mPa·s
310.15 K, x1 = 0.1191 | 2.572 mPa·s
310.51 K, x1 = 0.05983 | 1.859 mPa·s
311.15 K, x1 = 0.0762 | 2.088 mPa·s
311.15 K, x1 = 0.1191 | 2.506 mPa·s
311.15 K, x1 = 0.1861 | 2.726 mPa·s
311.15 K, x1 = 0.2919 | 2.778 mPa·s
311.51 K, x1 = 0.05983 | 1.819 mPa·s
312.15 K, x1 = 0.1191 | 2.447 mPa·s
312.51 K, x1 = 0.05983 | 1.781 mPa·s
313.15 K, x1 = 0.0762 | 2 mPa·s
313.15 K, x1 = 0.1191 | 2.385 mPa·s
313.15 K, x1 = 0.2919 | 2.628 mPa·s
313.51 K, x1 = 0.05983 | 1.738 mPa·s
314.15 K, x1 = 0.1191 | 2.329 mPa·s
314.51 K, x1 = 0.05983 | 1.711 mPa·s
315.15 K, x1 = 0.0762 | 1.922 mPa·s
315.15 K, x1 = 0.1191 | 2.277 mPa·s
315.15 K, x1 = 0.1861 | 2.449 mPa·s
315.15 K, x1 = 0.2919 | 2.489 mPa·s
315.51 K, x1 = 0.05983 | 1.681 mPa·s
316.13 K, x1 = 0.05983 | 1.662 mPa·s
316.15 K, x1 = 0.1191 | 2.23 mPa·s
316.81 K, x1 = 0.05983 | 1.642 mPa·s
317.15 K, x1 = 0.0762 | 1.852 mPa·s
317.15 K, x1 = 0.1191 | 2.183 mPa·s
317.15 K, x1 = 0.1861 | 2.326 mPa·s
317.15 K, x1 = 0.2919 | 2.362 mPa·s
317.51 K, x1 = 0.05983 | 1.625 mPa·s
318.01 K, x1 = 0.05983 | 1.613 mPa·s
318.15 K, x1 = 0.0762 | 1.822 mPa·s
318.62 K, x1 = 0.05983 | 1.6 mPa·s
318.65 K, x1 = 0.1191 | 2.111 mPa·s
319.14 K, x1 = 0.05983 | 1.591 mPa·s
319.15 K, x1 = 0.0762 | 1.795 mPa·s
319.15 K, x1 = 0.1191 | 2.084 mPa·s
319.15 K, x1 = 0.1861 | 2.212 mPa·s
319.15 K, x1 = 0.2919 | 2.243 mPa·s
319.62 K, x1 = 0.05983 | 1.583 mPa·s
320.12 K, x1 = 0.05983 | 1.579 mPa·s
320.15 K, x1 = 0.0762 | 1.773 mPa·s
320.15 K, x1 = 0.1191 | 2.045 mPa·s
320.62 K, x1 = 0.05983 | 1.578 mPa·s
320.65 K, x1 = 0.0762 | 1.766 mPa·s
320.92 K, x1 = 0.05983 | 1.577 mPa·s
321.12 K, x1 = 0.05983 | 1.58 mPa·s
321.15 K, x1 = 0.0762 | 1.76 mPa·s
321.15 K, x1 = 0.1191 | 2.002 mPa·s
321.15 K, x1 = 0.1861 | 2.105 mPa·s
321.15 K, x1 = 0.2919 | 2.131 mPa·s
321.31 K, x1 = 0.05983 | 1.58 mPa·s
321.51 K, x1 = 0.05983 | 1.585 mPa·s
321.65 K, x1 = 0.0762 | 1.761 mPa·s
321.71 K, x1 = 0.05983 | 1.594 mPa·s
321.87 K, x1 = 0.05983 | 1.602 mPa·s
321.95 K, x1 = 0.03452 | 1.083 mPa·s
321.95 K, x1 = 0.0762 | 1.764 mPa·s
321.96 K, x1 = 0.05983 | 1.611 mPa·s
322.06 K, x1 = 0.05983 | 1.621 mPa·s
322.12 K, x1 = 0.05983 | 1.628 mPa·s
322.15 K, x1 = 0.03452 | 1.081 mPa·s
322.15 K, x1 = 0.0762 | 1.77 mPa·s
322.15 K, x1 = 0.1191 | 1.962 mPa·s
322.17 K, x1 = 0.05983 | 1.634 mPa·s
322.21 K, x1 = 0.05983 | 1.643 mPa·s
322.25 K, x1 = 0.0762 | 1.775 mPa·s
322.26 K, x1 = 0.05983 | 1.654 mPa·s
322.32 K, x1 = 0.05983 | 1.669 mPa·s
322.35 K, x1 = 0.0762 | 1.783 mPa·s
322.37 K, x1 = 0.05983 | 1.686 mPa·s
322.42 K, x1 = 0.05983 | 1.711 mPa·s
322.44 K, x1 = 0.05983 | 1.722 mPa·s
322.45 K, x1 = 0.03452 | 1.076 mPa·s
322.45 K, x1 = 0.0762 | 1.791 mPa·s
322.46 K, x1 = 0.05983 | 1.734 mPa·s
322.47 K, x1 = 0.05983 | 1.741 mPa·s and 1.749 mPa·s
322.49 K, x1 = 0.05983 | 1.758 mPa·s and 1.764 mPa·s
322.51 K, x1 = 0.05983 | 1.786 mPa·s and 1.786 mPa·s and 1.793 mPa·s
322.55 K, x1 = 0.0762 | 1.804 mPa·s
322.62 K, x1 = 0.0762 | 1.817 mPa·s and 1.818 mPa·s
322.65 K, x1 = 0.03452 | 1.074 mPa·s
322.95 K, x1 = 0.03452 | 1.07 mPa·s
323.15 K, x1 = 0.03452 | 1.069 mPa·s
323.15 K, x1 = 0.1191 | 1.921 mPa·s
323.15 K, x1 = 0.1861 | 2.007 mPa·s
323.15 K, x1 = 0.2919 | 2.028 mPa·s
